Data as given in the BET-seq Pho4 binding data (Le et al. 2018).
This is one part of the list. These are noisy estimates, calculated here from bound and input reads.

biological target: T1, Pho4 (S. cerevisiae) (UniProt P07270); test: relative binding free energy (BET-seq); higher = weaker binding; details: reference: library average
T1 sequence: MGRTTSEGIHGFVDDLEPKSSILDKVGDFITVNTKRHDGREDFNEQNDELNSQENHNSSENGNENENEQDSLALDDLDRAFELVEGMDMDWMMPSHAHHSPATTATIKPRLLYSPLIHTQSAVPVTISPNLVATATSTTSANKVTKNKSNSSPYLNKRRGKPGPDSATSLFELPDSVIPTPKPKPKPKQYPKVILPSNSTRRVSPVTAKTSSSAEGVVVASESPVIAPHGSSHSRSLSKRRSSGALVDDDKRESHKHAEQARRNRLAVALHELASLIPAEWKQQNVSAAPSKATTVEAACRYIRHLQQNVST

Relative binding free energy, -0.13 kcal/mol:
GTTCCCACGTGGTGGT
TCAGGCACGTGGGTTA
CGGGGCACGTGCTGAT
TTGGGCACGTGTCAGG

Relative binding free energy, 0.14 kcal/mol:
GGAGTCACGTGCGTTG
ATTTTCACGTGGATGA
ATTTCCACGTGTGGTG
ATGTGCACGTGACCGG
GTTTGCACGTGGAAAA
GAATTCACGTGGGTAG

Relative binding free energy, 0.21 kcal/mol:
GGTCTCACGTGTATTT
ATCTTCACGTGGGTGG
GTGGTCACGTGGACTA
AGGGACACGTGAAAGT
TCGGCCACGTGAGAGG
TTCAACACGTGTGGAT
AAGAACACGTGTAGTT

Relative binding free energy, 0.35 kcal/mol:
TGGTTCACGTGAGCGA

Relative binding free energy, 0.09 kcal/mol:
CCTGTCACGTGAGTGG
CGTGGCACGTGAGGGT
TCAAGCACGTGTCGGG
TGCTACACGTGGTGGA
AATGTCACGTGTTCGT

Relative binding free energy, 0.03 kcal/mol:
TCTGTCACGTGGGAGG
CTTTACACGTGTTTGT
GAAGACACGTGTAGTG
CCGGTCACGTGGTAGT
GTTGGCACGTGTGGCG

Relative binding free energy, 0.39 kcal/mol:
GTTCGCACGTGAATTT

Relative binding free energy, -0.28 kcal/mol:
TAGAGCACGTGGCGGA

Relative binding free energy, 0.12 kcal/mol:
TAACTCACGTGGGTAT
GGGGACACGTGTGTGG
GGGATCACGTGCTTGG
AATGTCACGTGCTGTG
GGTTACACGTGGTATC
CGGGTCACGTGTCTTT

Relative binding free energy, 0.04 kcal/mol:
GGTTCCACGTGGGGTC
CGTGTCACGTGTTGTT
ACTGGCACGTGTTGTC
TGTTGCACGTGGAGTC
CGAGTCACGTGTGAGG
GAGGTCACGTGGGTGA
GCGAACACGTGGGATG
CGGGTCACGTGGGAGG

Relative binding free energy, 0.1 kcal/mol:
TGGCACACGTGTGTAA
GGTGGCACGTGAGTCG
AGCGTCACGTGGTACG
GGTATCACGTGCGCTT
CGGATCACGTGTGCGT

Relative binding free energy, 0.29 kcal/mol:
TAATTCACGTGACGTG
TAGTTCACGTGTGTGC
AGACTCACGTGTTATG

Relative binding free energy, -0.27 kcal/mol:
GATACCACGTGGGGGG

Relative binding free energy, 0.28 kcal/mol:
GCGTTCACGTGTTGCT
TTGGTCACGTGTAGCT
GTTTTCACGTGCGTTC
ACAATCACGTGATGGT

Relative binding free energy, 0.33 kcal/mol:
TGCTTCACGTGATTTT
TTTTTCACGTGGAACG

Relative binding free energy, -0.2 kcal/mol:
AGTGGCACGTGCTTAA
TTGCCCACGTGGTGGG

Relative binding free energy, 0.22 kcal/mol:
TGTATCACGTGATTGC
TGTTACACGTGAACGT
GGACACACGTGTGGAG
GATTTCACGTGGGTAC
TGGTTCACGTGGACGA

Relative binding free energy, -0.03 kcal/mol:
AGCGGCACGTGTTTTG
TAATACACGTGTCGTT

Relative binding free energy, 0 kcal/mol:
AGCGACACGTGGTGGT
TCGGGCACGTGTAGTT
AGTATCACGTGGGGTT
AGCATCACGTGGGGCG
ACGGCCACGTGTTTGG

Relative binding free energy, 0.08 kcal/mol:
TTGCACACGTGTTGTT
TTTAACACGTGATATA
TCGGTCACGTGCGGGG
TGAATCACGTGTATGG
ATAGTCACGTGTGCTA
TGGGCCACGTGTGTTT

Relative binding free energy, 0.31 kcal/mol:
CTCTTCACGTGTTTTG
CGGTTCACGTGCGTTG

Relative binding free energy, -0.07 kcal/mol:
TTTGACACGTGGTCTC
TGACGCACGTGTCTGG

Relative binding free energy, -0.05 kcal/mol:
TTTGACACGTGTATAG
GGTTACACGTGGGCGC
CGCGACACGTGGGTGG
TTTGACACGTGGGCCT
GGAGACACGTGGTGTG
GTGAGCACGTGTAGCG
TGATGCACGTGGATCT

Relative binding free energy, 0.23 kcal/mol:
TGTTTCACGTGCTAAG
CGGATCACGTGGTATA
GTAAGCACGTGAGCGT

Relative binding free energy, -0.08 kcal/mol:
TGGAGCACGTGCGGGT
AGAGGCACGTGGGGTC
AGGGACACGTGTCGTA

Relative binding free energy, -0.06 kcal/mol:
AAGGGCACGTGGACTT
TTTTGCACGTGGTATG
GGTAGCACGTGCTTTG
TTATACACGTGGAGGT
GTTAGCACGTGTTGAT
GTAGACACGTGGGTCG
GATTGCACGTGCGCGT

Relative binding free energy, 0.27 kcal/mol:
AGTTTCACGTGACGAT
TGATGCACGTGAGGTT
TTAGTCACGTGAGCGT
GGACTCACGTGATGTT
GTGTTCACGTGGCAAG
AGATTCACGTGATTGG

Relative binding free energy, 0.3 kcal/mol:
AATTTCACGTGTCTTG

Relative binding free energy, 0.45 kcal/mol:
CAGTTCACGTGTAATG

Relative binding free energy, 0.25 kcal/mol:
GGTCTCACGTGTGTTC
GTAGTCACGTGGACTT
GTTTACACGTGAGGAA
TAGATCACGTGATTGG
ATTCGCACGTGAATTG

Relative binding free energy, -0.09 kcal/mol:
GTGTGCACGTGGTATC
TAGTGCACGTGCGTAG
ATAGACACGTGTTATG
TGGGGCACGTGACACG

Relative binding free energy, 0.34 kcal/mol:
TGGCTCACGTGAGTAG
TATATCACGTGTACGG
GGGTTCACGTGTTGTA
CTTTACACGTGAGTTG

Relative binding free energy, 0.01 kcal/mol:
GGGCGCACGTGTAGGT
GACGTCACGTGGTAGT
TTTGTCACGTGCATTG
CGTGTCACGTGTGTAT
GGGGGCACGTGTGGGA
TGCTGCACGTGATGAT
TGTTGCACGTGATCGT

Relative binding free energy, 0.06 kcal/mol:
TGTTACACGTGCGGGC
TATTGCACGTGGAGAT
AGATGCACGTGTTGCA
TGGGTCACGTGCGTGG
TAGGGCACGTGAGGAC
GTTGGCACGTGATGTA
AGGTACACGTGTATTG

Relative binding free energy, 0.05 kcal/mol:
TTTGTCACGTGGCTGC
GGTGACACGTGTAGGA
TGAGTCACGTGGACAT
GGGCGCACGTGGAAGG
GTACGCACGTGTAAGT
TTCGTCACGTGGGTTT
ATTAACACGTGTGCTA
GTGTACACGTGTGTTC

Relative binding free energy, 0.18 kcal/mol:
AGGATCACGTGCGGCG
GTAATCACGTGGATTG
ATTTGCACGTGACTGG
AGTTACACGTGGTGGG
CATGTCACGTGTTAGG
AGGGTCACGTGAAAGA
AGTTGCACGTGTTGAA

Relative binding free energy, -0.12 kcal/mol:
TGCGGCACGTGCCGGG
GGGGCCACGTGGCGGT
TATAACACGTGCGGGG
GTTGGCACGTGGCTAA
GGGCACACGTGGGCGG
AGCTGCACGTGGGAGT
GAGGCCACGTGGGTTA

Relative binding free energy, 0.49 kcal/mol:
AAAGTCACGTGAGCGG

Relative binding free energy, -0.31 kcal/mol:
CCGTGCACGTGGGGGT
CGGCGCACGTGGGGTT
TGAGGCACGTGGTAGG

Relative binding free energy, 0.24 kcal/mol:
GGTCTCACGTGCTTGG
GGGCTCACGTGGAGAG
TGTTTCACGTGGAGCA
CTGAACACGTGTTTAT

Relative binding free energy, 0.38 kcal/mol:
GGTTTCACGTGAGTCG

Relative binding free energy, -0.24 kcal/mol:
AGTTGCACGTGGGCCG
AGGGCCACGTGGGTTT
ATTGGCACGTGGTTAC

Relative binding free energy, 0.32 kcal/mol:
TGTTTCACGTGACAGG

Relative binding free energy, 0.26 kcal/mol:
TTATTCACGTGGTTTT

Relative binding free energy, -0.15 kcal/mol:
CTTAGCACGTGGCGTT
TGACGCACGTGCTGGG

Relative binding free energy, 0.19 kcal/mol:
AGGTTCACGTGTGTAT
GGTGTCACGTGTAAGG

Relative binding free energy, -0.14 kcal/mol:
TATGACACGTGCGGGG
TTATCCACGTGGGGGT

Relative binding free energy, -0.16 kcal/mol:
GTGGGCACGTGGGATA
AGCAGCACGTGGTGGC

Relative binding free energy, 0.02 kcal/mol:
TATTGCACGTGTTAAG
GTGAGCACGTGTTTTT

Relative binding free energy, 0.52 kcal/mol:
TTGATCACGTGAATGC

Relative binding free energy, -0.01 kcal/mol:
CAGGTCACGTGGTTGT
TTTGGCACGTGCAATT
ATCGGCACGTGTTAAG
TCAGGCACGTGTTAAG
GGGGGCACGTGTTCGG
ATGTACACGTGGCGGC

Relative binding free energy, -0.02 kcal/mol:
TGGAACACGTGGTGGT
GTAGGCACGTGTTAGG
CAGTACACGTGGTGGG

Relative binding free energy, -0.3 kcal/mol:
CTGGGCACGTGCGGTA

Relative binding free energy, -0.1 kcal/mol:
GGTACCACGTGGTTGG
CGTGGCACGTGGATGC
TTTGACACGTGGGTCG
GTATCCACGTGGGGGA

Relative binding free energy, -0.04 kcal/mol:
TGAATCACGTGGTGAG
TCTTGCACGTGTTTGC

Relative binding free energy, 0.11 kcal/mol:
GTTCACACGTGTTTAG

Relative binding free energy, 0.2 kcal/mol:
TTGTACACGTGGACGG
CGTAACACGTGTTCGT
GTGGTCACGTGAACGT
CAAGTCACGTGTGGTT
TACTTCACGTGTCGTT
GGGAGCACGTGAGAGC

Relative binding free energy, 0.16 kcal/mol:
AAATGCACGTGATTTT

Relative binding free energy, 0.13 kcal/mol:
ATATACACGTGAATTT
GTCTACACGTGTGTGG
TATATCACGTGTACGT
CGATTCACGTGGGGGT

Relative binding free energy, -0.19 kcal/mol:
TGCAGCACGTGGTAAG
TATCGCACGTGGGGGG
ATTGGCACGTGGGTAG
CGGTGCACGTGGTTAA
CATCGCACGTGGTGGT

Relative binding free energy, -0.11 kcal/mol:
TAGGGCACGTGCAGGC
TAGCGCACGTGTTGTG
ATATACACGTGCGTGT
ATCAGCACGTGTGGTG
AGAGGCACGTGTCTGG
TGTGGCACGTGGGTGG

Relative binding free energy, 0.15 kcal/mol:
GAGCTCACGTGTGTTG
AGATTCACGTGGGCTT

Relative binding free energy, -0.17 kcal/mol:
AAGTGCACGTGGAGCG

Relative binding free energy, 0.07 kcal/mol:
TCGTGCACGTGAGTGC
ATAATCACGTGGGGTC
TATAACACGTGGGGAG
